Measurements from PubChem BioAssay (Tox21).
Values joined by “and” are separate entries in the source; they are usually repeats but may differ in a detail not shown here. Equal entries are not always repeated. The inconclusive results got no clear call from the source; some entries with a clear call stand among them for comparison. For some assays here: Potencies of inconclusive entries are doubtful fits and often do not repeat. Active and inactive are the calls of the source. Unless noted, calls come from the whole dose curve.

Legend:
[1] = qHTS assay to identify small molecule antagonists of the sonic hedgehog signaling (Shh) pathway (AID 1259369); note: nearly all actives have a fitted effect of over 45% in size; note: potency is the fitted concentration of half-maximal effect; for activity change, negative = inhibition: % is set by controls: 0 for no effect and ±100 for the full control effect
Procedure, shortened: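 Inhibition of Shh signalling is measured as reduced Gli1-response-element firefly luciferase output in an NIH/3T3-derived stable reporter clone stimulated with conditioned medium for 24hr.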

[2] = target: Estrogen receptor beta (Homo sapiens) (UniProt Q92731); assay: qHTS assay to identify small molecule agonists of the estrogen receptor beta (ER-beta) signaling pathway (AID 1259377; active = well fitted activation curve with a large enough effect in the signal ratio in the repeat runs, not every such curve was filed as active; inconclusive = weak or mixed curves, or effect the other way; the % refers to the signal ratio; note: potency is the fitted concentration of half-maximal effect; for activation: % is set by controls: 0 for no effect and ±100 for the full control effect); settings: ER-beta-UAS-bla HEK293T, beta-lactamase FRET ratio, 16 h; activation: at 92.4 µM (top of the series) unless noted
Chain of UniProt Q92731 (Q92731 whole entry, looked up): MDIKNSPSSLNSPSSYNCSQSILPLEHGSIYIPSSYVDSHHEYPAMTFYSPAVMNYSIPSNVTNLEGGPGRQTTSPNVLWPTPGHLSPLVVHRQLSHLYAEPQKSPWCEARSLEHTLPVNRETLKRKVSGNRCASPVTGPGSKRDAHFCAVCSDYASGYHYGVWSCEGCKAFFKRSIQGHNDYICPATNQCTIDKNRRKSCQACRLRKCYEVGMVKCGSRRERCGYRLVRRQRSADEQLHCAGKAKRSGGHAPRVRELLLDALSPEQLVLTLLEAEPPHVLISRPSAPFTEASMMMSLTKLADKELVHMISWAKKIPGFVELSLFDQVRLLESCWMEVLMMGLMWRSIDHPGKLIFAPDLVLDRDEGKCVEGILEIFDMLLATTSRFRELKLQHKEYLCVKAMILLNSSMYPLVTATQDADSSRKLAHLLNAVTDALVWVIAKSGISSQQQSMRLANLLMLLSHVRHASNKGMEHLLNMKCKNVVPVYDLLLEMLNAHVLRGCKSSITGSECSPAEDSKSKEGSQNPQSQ
Procedure, shortened: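 HEK293T ER-beta-UAS-bla; 2% charcoal-stripped FBS; cells pre-incubated 6 hr, compound 16 hr, 37C/5% CO2; LiveBLAzer B/G FRET substrate 2 h RT; fluorescence intensity read.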

[3] = qHTS assay to identify small molecule agonists of the androgen receptor (AR) signaling pathway in the presence of an antagonist - cell viability counter screen (AID 1259379; active = well fitted curve in the direction sought with a large enough effect in the repeat runs; inconclusive = weak or mixed curves; inactive = no such curve, though single readings can be large; an effect the other way counts as inactive or inconclusive;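 note: MDA-kb2 human breast cancer cells carrying an MMTV luciferase reporter; % is set by controls: 0 for no effect and ±100 for the full control effect; nearly all actives have a fitted effect of over 25% in size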)
Procedure, shortened: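 Fluorescence from CellTiter-Fluor, added after 15 hr and read 1 hr later, gave cell viability. Cells were MDA-kb2 exposed to compounds (15 concentrations) in the presence of 3.0uM nilutamide at 37C, 0% CO2.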

[4] = qHTS assay to identify small molecule agonists of the estrogen receptor beta (ER-beta) signaling pathway - cell viability counter screen (AID 1259380; active = well fitted curve in the direction sought with a large enough effect in the repeat runs; inconclusive = weak or mixed curves; inactive = no such curve, though single readings can be large; an effect the other way counts as inactive or inconclusive; note: potency is the fitted concentration of half-maximal effect; nearly all actives have a fitted effect of over 30% in size)
Procedure, shortened: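 Same-well viability counter screen. Cells: ER-beta-UAS-bla HEK293T, plated 6 hr before compound, in 2% charcoal-stripped FBS. Compound exposure 16 hr, 37C; viability by CellTiter-Glo luminescence after 30 min at room temperature.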

[5] = qHTS assay to identify small molecule antagonists of the progesterone receptor (PR) signaling pathway - cell viability counter screen (AID 1346798; active = well fitted curve in the direction sought with a large enough effect in the repeat runs; inconclusive = weak or mixed curves; inactive = no such curve, though single readings can be large; an effect the other way counts as inactive or inconclusive; note: potency is the fitted concentration of half-maximal effect; nearly all actives have a fitted effect of over 50% in size)
Procedure, shortened: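 HEK293T PR-UAS-bla, 2% charcoal-stripped FBS; 4 hr pre-plate; cpd + R5020, 16 h 37C; LiveBLAzer read first; then CellTiter-Glo 30 min RT, luminescence.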

[6] = qHTS assay to identify small molecule agonists of the progesterone receptor (PR) signaling pathway - cell viability counter screen (AID 1346799); note: nearly all actives have a fitted effect of over 45% in size; note: potency is the fitted concentration of half-maximal effect
Procedure, shortened: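 Luminescence from CellTiter-Glo, added after the beta-lactamase FRET read in the same wells, gave cytotoxicity in PR-UAS-bla HEK293T cells treated with compounds for 16 hr at 37C.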

[7] = target: Estrogen receptor beta (Homo sapiens) (UniProt Q92731); assay: qHTS assay to identify small molecule antagonists of the estrogen receptor beta (ER-beta) signaling pathway (AID 1259378; active = well fitted inhibition curve with a large enough effect in the signal ratio in the repeat runs, not every such curve was filed as active; inconclusive = weak or mixed curves, or effect the other way; inactive = no such curve, though single readings can be large or run the other way; the % refers to the signal ratio; note: potency is the fitted concentration of half-maximal effect; for activity, negative = inhibition: % is set by controls: 0 for no effect and ±100 for the full control effect); settings: ER-beta-UAS-bla HEK293T, beta-lactamase FRET ratio, 16 h; activity, negative = inhibition: at 92.4 µM (top of the series) unless noted
Procedure, shortened: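 ER-beta-UAS-bla HEK293T cells in 2% charcoal-stripped FBS medium treated with compound plus 1nM final 17-beta-estradiol for 16 hr at 37C. Beta-lactamase reporter read by FRET substrate fluorescence after 2 hours at room temperature.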

[8] = target: Estrogen receptor (Homo sapiens) (UniProt P03372); assay: qHTS assay to identify small molecule agonists of the estrogen receptor alpha (ER-alpha) signaling pathway in the presence of an antagonist (AID 1259383); note: potency is the fitted concentration of half-maximal effect; nearly all actives have a fitted effect of over 15% in size
Chain of UniProt P03372 (P03372 whole entry, looked up): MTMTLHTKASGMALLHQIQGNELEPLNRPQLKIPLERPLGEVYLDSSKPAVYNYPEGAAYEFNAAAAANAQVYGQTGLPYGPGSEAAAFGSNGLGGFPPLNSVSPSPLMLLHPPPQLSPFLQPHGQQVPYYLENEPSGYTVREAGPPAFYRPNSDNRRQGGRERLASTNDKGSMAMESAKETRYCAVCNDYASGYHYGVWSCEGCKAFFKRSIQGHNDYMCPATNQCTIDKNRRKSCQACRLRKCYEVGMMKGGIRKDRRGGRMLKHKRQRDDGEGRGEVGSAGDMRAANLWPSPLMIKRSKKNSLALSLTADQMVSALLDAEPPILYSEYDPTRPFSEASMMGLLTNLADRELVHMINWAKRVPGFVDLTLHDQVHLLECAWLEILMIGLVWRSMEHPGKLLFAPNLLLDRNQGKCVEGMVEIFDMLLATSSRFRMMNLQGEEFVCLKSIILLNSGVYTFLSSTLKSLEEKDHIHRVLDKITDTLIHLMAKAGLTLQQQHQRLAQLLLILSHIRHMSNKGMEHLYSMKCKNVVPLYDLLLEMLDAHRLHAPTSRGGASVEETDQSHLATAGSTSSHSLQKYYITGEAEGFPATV
Procedure, shortened: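 Cells are hormone-deprived for 5 days (charcoal-stripped FBS, no phenol red), plated for 24hr, spiked with 10.0nM ICI-182,780, then dosed at 15 concentrations. After 22hr at 37C, ONE-Glo luminescence reports ERE-luciferase activity.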

[9] = target: Thyrotropin receptor (Homo sapiens) (UniProt P16473); assay: qHTS assay to identify small molecule antagonists of the thyroid stimulating hormone receptor (TSHR) signaling pathway (AID 1259385); settings: TSHR-HEK293 cAMP HTRF, TSH-stimulated antagonist mode; activity change, negative = inhibition: at 92.4 µM (top of the series) unless noted; note: potency is the fitted concentration of half-maximal effect; nearly all actives have a fitted effect of over 20% in size
Chain of UniProt P16473 (P16473 whole entry, looked up): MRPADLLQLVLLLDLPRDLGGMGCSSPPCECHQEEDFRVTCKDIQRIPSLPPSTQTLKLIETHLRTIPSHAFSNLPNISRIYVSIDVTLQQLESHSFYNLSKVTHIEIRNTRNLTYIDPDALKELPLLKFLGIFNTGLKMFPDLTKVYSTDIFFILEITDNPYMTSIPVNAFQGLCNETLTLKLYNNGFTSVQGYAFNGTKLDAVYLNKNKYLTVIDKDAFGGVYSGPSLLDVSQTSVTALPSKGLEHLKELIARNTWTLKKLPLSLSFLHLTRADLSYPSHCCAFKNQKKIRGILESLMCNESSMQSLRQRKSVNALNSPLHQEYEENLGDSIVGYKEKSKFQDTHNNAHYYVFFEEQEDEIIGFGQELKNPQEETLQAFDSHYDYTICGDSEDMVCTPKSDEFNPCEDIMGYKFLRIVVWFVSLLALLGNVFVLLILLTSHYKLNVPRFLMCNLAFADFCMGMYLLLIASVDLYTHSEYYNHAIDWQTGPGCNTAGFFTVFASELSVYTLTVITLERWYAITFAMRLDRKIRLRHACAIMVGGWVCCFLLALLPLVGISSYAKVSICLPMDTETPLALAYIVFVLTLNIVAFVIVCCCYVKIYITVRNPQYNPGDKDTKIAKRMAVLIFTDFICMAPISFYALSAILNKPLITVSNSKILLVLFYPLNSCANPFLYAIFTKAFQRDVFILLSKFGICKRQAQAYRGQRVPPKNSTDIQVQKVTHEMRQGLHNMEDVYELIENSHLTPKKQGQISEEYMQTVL
Procedure, shortened: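 TSHR-HEK293 cells (800/well) plated 18 h, then compounds with Ro20-1724 and TSH at 1.5 ng/mL final, 30 min at room temperature. cAMP quantified by HTRF (cAMP-d2/anti-cAMP-cryptate, 1 h); 15 concentrations in triplicate.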

[10] = target: Progesterone receptor (Homo sapiens) (UniProt P06401); assay: qHTS assay to identify small molecule agonists of the progesterone receptor (PR) signaling pathway (AID 1346784); settings: PR-UAS-bla HEK293T, beta-lactamase FRET ratio, 16 h; activation: at 92.4 µM (top of the series) unless noted; note: nearly all actives have a fitted effect of over 30% in size; note: potency is the fitted concentration of half-maximal effect; for activation: % is set by controls: 0 for no effect and ±100 for the full control effect
Chain of UniProt P06401 (P06401 whole entry, looked up): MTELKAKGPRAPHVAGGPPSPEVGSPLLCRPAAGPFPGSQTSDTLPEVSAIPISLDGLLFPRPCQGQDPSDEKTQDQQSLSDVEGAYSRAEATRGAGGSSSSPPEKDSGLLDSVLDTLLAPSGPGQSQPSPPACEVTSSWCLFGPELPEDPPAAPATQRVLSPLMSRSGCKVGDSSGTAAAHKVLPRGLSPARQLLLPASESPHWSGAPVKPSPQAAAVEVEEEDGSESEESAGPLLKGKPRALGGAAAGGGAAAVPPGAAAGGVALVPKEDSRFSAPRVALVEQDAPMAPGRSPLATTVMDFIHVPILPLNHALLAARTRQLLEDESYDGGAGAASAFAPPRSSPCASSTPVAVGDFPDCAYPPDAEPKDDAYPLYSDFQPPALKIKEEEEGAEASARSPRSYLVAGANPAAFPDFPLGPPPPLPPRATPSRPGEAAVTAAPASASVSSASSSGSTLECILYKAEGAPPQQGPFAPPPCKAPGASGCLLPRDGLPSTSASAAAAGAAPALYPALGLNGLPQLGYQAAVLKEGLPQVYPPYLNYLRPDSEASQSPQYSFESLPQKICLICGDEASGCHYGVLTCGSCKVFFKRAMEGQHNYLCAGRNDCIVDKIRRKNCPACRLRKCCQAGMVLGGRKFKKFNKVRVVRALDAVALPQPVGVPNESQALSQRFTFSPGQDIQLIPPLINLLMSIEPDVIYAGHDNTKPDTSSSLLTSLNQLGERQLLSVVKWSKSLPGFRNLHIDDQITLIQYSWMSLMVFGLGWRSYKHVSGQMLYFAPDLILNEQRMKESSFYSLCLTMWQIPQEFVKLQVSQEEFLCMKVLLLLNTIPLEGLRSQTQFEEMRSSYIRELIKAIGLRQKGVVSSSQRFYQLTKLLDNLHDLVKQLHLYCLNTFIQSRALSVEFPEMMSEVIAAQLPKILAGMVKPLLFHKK
Procedure, shortened: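 Beta-lactamase reporter read-out: after 16 hr compound treatment at 37C and a further 2 hr at room temperature with LiveBLAzer B/G FRET substrate, fluorescence was measured in PR-UAS-bla HEK 293T cells grown in 2% charcoal-stripped serum.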

[11] = target: Progesterone receptor (Homo sapiens) (UniProt P06401); assay: qHTS assay to identify small molecule antagonists of the progesterone receptor (PR) signaling pathway (AID 1346795; active = well fitted inhibition curve with a large enough effect in the signal ratio in the repeat runs, not every such curve was filed as active; inconclusive = weak or mixed curves; the % refers to the signal ratio; note: potency is the fitted concentration of half-maximal effect); settings: PR-UAS-bla HEK293T, beta-lactamase FRET ratio, 16 h; activity change, negative = inhibition: at 92.4 µM (top of the series) unless noted
Procedure, shortened: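 Read-out is fluorescence from the LiveBLAzer B/G FRET substrate, cleaved by a UAS-controlled beta-lactamase in PR-UAS-bla HEK293T cells after 16 hr exposure to compound plus 1 nM promegestone (final), followed by 2 hr at room temperature.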

[12] = qHTS assay to identify small molecule antagonists of the TGF-beta/Smad signaling pathway - cell viability counter screen (AID 1346824; active = well fitted curve in the direction sought with a large enough effect in the repeat runs; inconclusive = weak or mixed curves; inactive = no such curve, though single readings can be large; an effect the other way counts as inactive or inconclusive; note: nearly all actives have a fitted effect of over 50% in size; note: potency is the fitted concentration of half-maximal effect)
Procedure, shortened: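 SBE-bla HEK 293T cells, incubated overnight, then compound plus 0.25 ng/mL TGF-beta1 (stock added) for 5 hr at 37 C. Viability was read in the same wells by CellTiter-Glo luminescence after 30 min at room temperature.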

[13] = qHTS assay to identify small molecule antagonists of the estrogen receptor beta (ER-beta) signaling pathway - cell viability counter screen (AID 1259382; active = well fitted curve in the direction sought with a large enough effect in the repeat runs; inconclusive = weak or mixed curves; inactive = no such curve, though single readings can be large; an effect the other way counts as inactive or inconclusive; note: potency is the fitted concentration of half-maximal effect; nearly all actives have a fitted effect of over 55% in size)
Procedure, shortened: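 Following a 6 hr plating period, HEK293T cells carrying a UAS-driven beta-lactamase reporter under ER-beta control received compounds and 1nM E2 (final). After 16 hr at 37C and 2 hr substrate loading, CellTiter-Glo luminescence indicated viability.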
Tags give direction and shape of the fitted curve or compound fluorescence and quenching.

Row | SMILES | Potency [1] | Potency [2] | activation [2] | Potency [3] | Potency [4] | Potency [5] | Potency [6] | Potency [7] | Potency [8] | Potency [9] | Potency [10] | Potency [11] | activity, negative = inhibition [7] | Potency [12] | Potency [13]
1 | CC(NC(C)(C)C)C(=O)c1cccc(Cl)c1 (configuration not stated) | inconclusive: 0.841 µM [inhibitor, full curve] | inconclusive: 25.8 µM [activator, partial curve, poor fit] | inconclusive: -0.337% [at 42.5 µM] | inactive | inconclusive: 23 µM [cytotoxic, partial curve, poor fit] and inconclusive: 26.6 µM [cytotoxic, partial curve, poor fit] | inconclusive: 1.15 µM [cytotoxic, single point] | inconclusive: 36.5 nM [cytotoxic, full curve, poor fit] and inactive | – | – | – | – | – | – | – | –
2 | Fc1ccc(Oc2ccnc3cc(Cl)cc(Cl)c23)cc1 | inconclusive: 61.1 µM [inhibitor, partial curve, poor fit] | inconclusive: 61.1 µM [rising, partial curve] | – | – | – | – | inconclusive: 21.7 µM [rising, partial curve, poor fit] | inconclusive: 34.4 µM [rising, partial curve] | inconclusive: 34.4 µM [activator, partial curve, poor fit] | inconclusive: 68.6 µM | inactive | inconclusive: 27.3 µM [rising, full curve] | – | – | –
3 | Clc1ccccc1-c1nnc(-c2ccccc2Cl)nn1 | inactive | – | inconclusive: 4.42% | – | – | – | inconclusive: 0.382 µM [rising, partial curve, poor fit] | – | inconclusive: 19.2 µM [activator, partial curve, poor fit] | – | inconclusive: 27.2 µM [rising, single point] | – | inconclusive: 14.3% | inactive | –
4 | Nc1ccc(Sc2ccc(N)cc2)cc1 | inconclusive: 30.6 µM [inhibitor] | inconclusive: 27.3 µM [activator] | – | – | inconclusive: 15.4 µM [cytotoxic] | inconclusive: 61.1 µM | inconclusive: 61.1 µM | inconclusive: 48.6 µM [inhibitor] | – | – | inconclusive: 12.2 µM [falling, partial curve, poor fit] | inconclusive: 57.7 µM | – | inconclusive: 0.49 µM [cytotoxic, full curve, poor fit] | inconclusive: 27.3 µM [cytotoxic]
